Results from the supplement of paper PMC11171410.
Values joined by “and” are separate entries in the source; they are usually repeats but may differ in a detail not shown here. Identical values can stand only once. ± gives the standard deviation of the averaged measurements. Single values are uncertain, as repeats are few or missing.

Experiments:
[1] = test system: SUDHL6 venetoclax-resistant; test: estimated IC50 (cell viability); higher = less potent
[2] = test system: SUDHL6 parental; test: as above
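Note: compound screen comparing venetoclax-resistant SUDHL6, derived by months of escalating venetoclax exposure, with its matched parental line, IC50 from one-site nonlinear dose–response fit, geometric mean for duplicated compounds.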

SMILES | estimated IC50 [1] | estimated IC50 [2]
C/C(=N\NC(=S)N1CCC1)c1ccccn1 | 0.02 µM | 0.066 µM
C=CC(=O)Nc1cccc(Oc2nc(Nc3ccc(N4CCN(C)CC4)cc3)nc3ccsc23)c1 | 3.2 µM | 8.13 µM
CC(C)(C)c1cnc(CSc2cnc(NC(=O)C3CCNCC3)s2)o1 | 0.39 µM | 0.63 µM
CC(C)CC(=O)Nc1n[nH]c2c1CN(C(=O)C1CCN(C)CC1)C2(C)C | 1.77 µM | 7.19 µM
CC(C)N1CCN(Cc2cnc(-c3cc(-c4cccc5[nH]ccc45)cc4[nH]ncc34)o2)CC1 | 1.78 µM | 6.53 µM
CC(C)Oc1ccc(C(=O)N[C@H](CNC(=O)CN(C)C)Cc2ccc(-c3cn4cccc([C@H](C)O)c4n3)cc2)cc1Cl | 0.21 µM | 1.38 µM
CC(C)c1c2cc(-c3ccnc(NC4CCC(NC5CCOCC5)CC4)n3)ccc2nn1C (configuration not stated) | 1.47 µM | 2.42 µM
CC(C)c1cc(C(=O)N2Cc3ccc(CN4CCN(C)CC4)cc3C2)c(O)cc1O | 0.35 µM | 0.59 µM
CC1(C)CC(=O)c2c(C(F)(F)F)nn(-c3ccc(C(N)=O)c(N[C@H]4CC[C@H](O)CC4)c3)c2C1 | 0.261 µM | 0.648 µM
CC1(COc2ccc3c(c2)ncn3-c2ccc3cccc(N4CCC(N)CC4)c3n2)COC1 | 5.5 µM | 8.8 µM
CCc1cncnc1N1CCN(Cc2nc3ccc(C(F)(F)F)cc3[nH]2)CC1 | 5.82 µM | > 10 µM
CCc1cnn2c(NCc3ccc[n+]([O-])c3)cc(N3CCCC[C@H]3CCO)nc12 | 0.013 µM | 0.037 µM
CCn1c(-c2nonc2N)nc2c(C#CC(C)(C)O)ncc(OC[C@H]3CCCNC3)c21 | 6.56 µM | > 10 µM
CCn1c(=O)c(-c2cc[nH]n2)cc2c(C)nc(N)nc21 | 1.2 µM | 2.1 µM
CCn1c(CO)nn(-c2cc(O[C@@H](C)C(F)(F)F)c(C(=O)Nc3c(F)cccc3Cl)cc2F)c1=O | – | 0.001 µM
CN(C)CC#Cc1ccc(OCCCc2sc(N3CCc4cccc(C(=O)Nc5nc6ccccc6s5)c4C3)nc2C(=O)O)c(F)c1 | 4.58 µM | > 10 µM
CN(CCOc1ccc(-c2ccc3c(c2)OCO3)cc1C(C)(C)C)CC(=O)O | 5.69 µM | > 10 µM
CN(c1ncccc1CNc1nc(Nc2ccc3c(c2)CC(=O)N3)ncc1C(F)(F)F)S(C)(=O)=O | 2.55 µM and 3.4 µM | 5.15 µM and 5.6 µM
CN1C(=O)C(C)(C)Oc2c(-c3cn(C)c(=O)c4[nH]ccc34)cc(S(C)(=O)=O)cc21 | 1 µM | 1.74 µM
CN1CCN(c2ccc(OC(F)(F)F)c(Nc3ncc4c(n3)-c3c(c(C(N)=O)nn3CCO)CC4)c2)CC1 | 0.1 µM | 0.306 µM
CNC(=O)Nc1ccc(-c2nc(N3CC4CCC(C3)O4)c3cnn(C4CCC5(CC4)OCCO5)c3n2)cc1 | 0.105 µM | 1.59 µM
CNCc1ccc(C)c(NC(=O)c2ccc(Nc3nc(-c4ccccc4)c4ccccc4n3)cc2)c1 | 1.97 ± 0.11 µM | 4.83 ± 1.1 µM
CNS(=O)(=O)Nc1nccc(Cc2c(C)c3ccc(Oc4ncccn4)cc3oc2=O)c1F | 4.7 µM | 9.6 µM
COc1cc(C2c3cc4c(cc3C(O)C3COC(=O)C23)OCO4)cc(OC)c1O (configuration not stated) | 0.6 µM | 0.9 µM

SMILES | estimated IC50 [1] | estimated IC50 [2]
COc1cc(F)ccc1-c1cc(Nc2cc(CS(C)(=N)=O)ccn2)ncc1F (configuration not stated) | 0.16 µM | 0.29 µM
COc1cc(F)ccc1-c1ncnc(Nc2cccc(C[S@](C)(=N)=O)c2)n1 | 0.94 µM | 1.79 µM
COc1cc(N2CCC(N(C)C)CC2)ccc1Nc1ncc(Cl)c(Nc2ccccc2P(C)(C)=O)n1 | 4 µM | 6.6 µM
COc1cc(OC)c(/C=C/S(=O)(=O)Cc2ccc(OC)c(NCC(=O)O)c2)c(OC)c1 | 0.05 µM | 0.08 µM
COc1cc2c(Oc3ccc(NC(=O)C4(C(=O)Nc5ccc(F)cc5)CC4)cc3F)ccnc2cc1OCCCN1CCOCC1 | 2.66 µM | 4.55 µM
COc1cc2c(cc1-c1c(C)noc1C)ncc1[nH]c(=O)n([C@H](C)c3ccccn3)c12 | 1.4 µM | > 10 µM
COc1ccc(-c2cc3c(C)nc(N)nc3n([C@H]3CC[C@H](OCCO)CC3)c2=O)cn1 | 0.07 µM | 0.48 µM
COc1ccc(CC(=O)Nc2nc3c(s2)CCc2ccccc2-3)cc1OC | 3.75 µM | 7.46 µM
COc1cccc(NC(=O)/C=C/c2ccc(Cl)cc2)c1 | 4.05 µM | > 10 µM
COc1ncc(-c2ccc3nccc(-c4ccnnc4)c3c2)cc1NS(=O)(=O)c1ccc(F)cc1F | 0.005 µM | 0.041 µM
CS(=O)(=O)N1CCN(C(=O)CNC(=O)/C=C/c2ccc(Cl)c(Cl)c2)CC1 | 0.02 µM | 0.16 µM
C[C@@H](C(=O)Nc1ccc(Cl)cc1)C1CCC(c2ccnc3ccc(F)cc23)CC1 (some centres not stated) | 1.52 µM | 6.51 µM
C[C@@H]1COCCN1c1cc(-c2ccnn2C)c2ccnc(-c3ccn[nH]3)c2n1 | 1.63 µM | 4.22 µM
Cc1[nH]nc2ccc(-c3cncc(OC[C@@H](N)Cc4ccccc4)c3)cc12 | 1.89 µM | 3.13 µM
Cc1cc(N2CCOCC2)ccc1Nc1nc(NC2CCCCC2)c2[nH]cnc2n1 | 2.62 µM | 5.2 µM
Cc1cc(Nc2cc(CN3CCOCC3)c3nc(C)c(Cc4ccc(Cl)cc4F)n3n2)n[nH]1 | 5.01 µM | 8.74 µM
Cc1ccc(C(=O)N(CCCN)[C@@H](c2nc3cc(Cl)ccc3c(=O)n2Cc2ccccc2)C(C)C)cc1 | 0.04 µM | 0.07 µM
Cc1ccc(C(=O)N(CCCN)[C@@H](c2oc3cc(Cl)ccc3c(=O)c2Cc2ccccc2)C(C)C)cc1 | 0.0011 µM | 0.0045 µM
Cc1ccc(C(=O)Nc2ccc(CN3CCN(C)CC3)c(C(F)(F)F)c2)cc1C#Cc1cnc2cccnn12 | 1.33 µM | 6.95 µM
Cc1ccc(S(=O)(=O)Nc2cc(-c3ccc(C#N)s3)ccc2C)cc1 | 0.036 µM | 0.088 µM
Cc1cccc(CC(=O)N2CCc3c2ccc(-c2cn(C)c4ncnc(N)c24)c3F)n1 | 5.2 µM | 8.3 µM
Cc1cccc(Nc2nc(NC3CCCCC3N)ncc2C(N)=O)c1 (configuration not stated) | 4.35 µM | 8.76 µM
Cc1cnc(Nc2ccc(N3CCN(C)CC3)cc2)nc1Nc1cccc(S(=O)(=O)NC(C)(C)C)c1 | 3.5 µM | 6.8 µM
Cc1cnc(Nc2ccc(OCCN3CCCC3)cc2)nc1Nc1cccc(S(=O)(=O)NC(C)(C)C)c1 | 4 µM | 7.6 µM

SMILES | estimated IC50 [1] | estimated IC50 [2]
Cc1nc2ccc(-n3ncc(C(=O)c4cc5ccccc5[nH]4)c3N)cc2[nH]1 | 6.54 µM | > 10 µM
Cc1noc(C)c1-c1ccc2[nH]c(=O)n3c2c1OC[C@@H]3c1ccccn1 | 0.84 µM | 1.83 µM
Cn1cc(-c2cc(S(C)(=O)=O)ccc2OCC2CC2)c2ccccc2c1=O | 1.25 µM | 2.23 µM
N#Cc1ccc(-c2c(-c3ncn[nH]3)sc(N3CCOCC3)c2C#N)c(F)c1 | 1.47 µM | 4.52 µM
NC(=O)c1ccccc1Nc1ccnc(Nc2cccc(O)c2)n1 | 3.95 µM | 6.69 µM
NC(=O)c1cnc(N[C@@H]2CCCC[C@@H]2N)nc1Nc1cccc(-n2nccn2)c1 | 3.83 µM | 7.43 µM
Nc1nc(Nc2ccc(S(N)(=O)=O)cc2)nn1C(=O)c1c(F)cccc1F | 3.45 µM | 6.04 µM
O=C(NCCN1CCOCC1)Nc1ccc(C(=O)/C=C/c2cccc(N3CCOCC3)n2)cc1 | 2.01 µM | 3.59 µM
O=C(c1ccccc1)c1ccc2nc(NC(=O)c3csc(C4CCN(c5ncnc6ccsc56)CC4)n3)[nH]c2c1 | 5.65 µM | 9.62 µM
O=C1NC(=O)C(c2cnc3ccccn23)=C1c1cn2c3c(cc(F)cc13)CN(C(=O)N1CCCCC1)CC2 | 0.76 µM | 2.09 µM
O=c1cc(-c2cccc3c2Sc2ccccc2S3)oc(N2CCOCC2)c1 | 2.55 µM | 7.9 µM
O=c1cc(N2CCNCC2)oc2c(-c3ccccc3)cccc12 | 4.08 µM | > 10 µM
c1cc(-c2cnn3cc(-c4ccc(N5CCNCC5)cc4)cnc23)c2cccnc2c1 | 0.37 µM | 1.2 µM
Nc1ncn([C@@H]2O[C@H](CO)[C@@H](O)[C@H]2O)c(=O)n1 [5-azacytidine] | 2.13 µM | 4.8 µM
Cn1cc(C2=C(c3coc4ccc(F)cc34)C(=O)NC2=O)c2cc3c(cc21)OCO3 [9-ing-41] | 4.67 µM | 7 µM
Cc1sc2c(c1C)C(c1ccc(Cl)cc1)=N[C@@H](CC(=O)OC(C)(C)C)c1nnc(C)n1-2 [(+)-JQ1] | 0.81 µM | 1.52 µM
C=C1C(=O)O[C@H]2[C@H]1CC/C(C)=C/CC[C@@]1(C)O[C@@H]21 [(-)-Parthenolide] | 6.1 µM | > 10 µM
FC(F)(F)Oc1ccc2nc(-c3ccc(OCCOCCOc4ccc(-c5nc6ccc(OC(F)(F)F)cc6[nH]5)nc4)cn3)[nH]c2c1 [AI-10-49] | 2.76 µM | 4.17 µM
C[C@H](Nc1ncnc2[nH]cnc12)c1cc2ccc(F)cc2nc1-c1ccccn1 [AMG319] | 5.87 µM | > 10 µM
c1cc(Nc2cc(C3CC3)[nH]n2)nc(Nc2ccc3nc[nH]c3c2)n1 [APY29] | 0.27 µM | 0.58 µM
O=C(c1ccc(Oc2ccccc2)cc1Cl)c1c[nH]c2ncnc(N[C@@H]3CC[C@@H](CO)OC3)c12 [ARQ 531] | 2.19 µM | 3.98 µM
O=C(NC1CCNCC1)c1n[nH]cc1NC(=O)c1c(Cl)cccc1Cl [AT7519] | 3.9 µM | 6.7 µM
O=C(Nc1c[nH]nc1-c1nc2ccc(CN3CCOCC3)cc2[nH]1)NC1CC1 [AT9283] | 1.94 µM | 3.93 µM
O=C(NCc1ccc(S(=O)(=O)c2cc(F)cc(F)c2)cc1)c1ccc2nccn2c1 [GNE-617] | – | 0.002 µM
